Laboratory results reported in PubChem BioAssay AID1240 (Sanford-Burnham Center for Chemical Genomics, 2008).
In all, about 50,000 compounds went through this assay and about 800 (1.6%) showed an effect of 50% or more. The list shows a part of the results.

These compounds were tested against Bcl-2-like protein 10 (Homo sapiens) (UniProt Q9HD36) (assay: TR3 peptide-Bcl-B binding displacers, biochemical primary FP assay, phenotype converters (AID 1240;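 also: 0% = Bcl-B with tracer peptide and DMSO and 100% = tracer peptide lacking Bcl-B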)). Settings: GST-Bcl-B / FITC-TR3 peptide fluorescence polarization; stronger effect = higher value; compound at 3.75 mg/L.
Sequence of UniProt Q9HD36 (Q9HD36 whole entry, looked up): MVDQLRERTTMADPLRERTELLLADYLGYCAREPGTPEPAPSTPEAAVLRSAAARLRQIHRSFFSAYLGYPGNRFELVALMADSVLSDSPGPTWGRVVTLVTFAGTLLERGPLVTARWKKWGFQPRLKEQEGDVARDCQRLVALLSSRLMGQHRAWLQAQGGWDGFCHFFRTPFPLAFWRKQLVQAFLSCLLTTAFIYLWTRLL

Row | SMILES | displacement [%]
1 | COc1ccc(Oc2c(C(F)(F)F)oc3cc(O)ccc3c2=O)cc1 | 8.5
2 | CCOc1ccc(N2C(=O)NC(=O)/C(=C\c3cc(Br)ccc3OC)C2=O)cc1 | 3.9
3 | C=CCN1C(=O)/C(=C\c2cc(Cl)c(O)c(Cl)c2)C(=O)NC1=S | -15.5
4 | CCOc1ccc(/C=C2\C(=O)NC(=O)N(c3ccc(Cl)cc3)C2=O)c(OCC)c1 | -11
5 | COc1ccc(/C(N)=N/OC(=O)COc2ccc(C(C)(C)C)cc2)cc1 | -3.1
6 | O=C(COC(=O)C1CC(=O)N(c2ccc(Cl)cc2)C1)c1ccccc1 (centres undefined) | 9.1
7 | O=C(c1ccc([N+](=O)[O-])cc1)N1CCN(CC2CC3C=CC2C3)CC1 (centres undefined) | -6.8
8 | c1ccc2cc(CN3CCN(Cc4ccncc4)CC3)ccc2c1 | -19.4
9 | Cn1ccnc1/C=C(/OC(=O)c1ccc(Cl)cc1)c1ccc(Cl)cc1 | 22
10 | CC1(C)OC2OC(C(=O)Nc3ccccc3)C3OC(C)(C)OC3C2O1 (centres undefined) | 10
11 | COc1ccc(/C=C2\C(=O)NC(=O)N(c3ccc(Br)cc3)C2=O)c(C)c1 | -11.3
12 | CCCC1=NN2C(=N)/C(=C/c3cc(OC)ccc3OC)C(=O)N=C2S1 | -0.5
13 | O=[N+]([O-])c1cccc(S(=O)(=O)Nc2ccc3c(c2)OCO3)c1 | 3.4
14 | Cc1nc2ccccn2c(=O)c1[N+](=O)[O-] | 17.1
15 | Cc1cc(C)n2c(SCc3ccc(Cl)cc3Cl)nnc2n1 | -10
16 | O=C(Oc1ccc([N+](=O)[O-])cc1)c1cc(S(=O)(=O)N2CCOCC2)ccc1Cl | -2.8
17 | O=C(O)CCSc1nc2ccccc2c(=O)[nH]1 | 14.4
18 | O=C1C2C3C=CC(O3)C2C(=O)N1Cc1ccccc1 (centres undefined) | 0.5
19 | O=C(O)CCC(=O)Nc1ccc(F)cc1 | -7.3
20 | Cc1ccc2oc(-c3ccc(C)c(NC(=O)c4ccc(Br)o4)c3)nc2c1 | -4.5
21 | COc1cccc(N2C(=O)/C(=C/c3ccc(C)o3)SC2=S)c1 | 39.6
22 | O=C1N/C(=C/c2ccccc2)C(O)=C1C=NCc1ccccc1 | 2

Row | SMILES | displacement [%]
23 | CC(C)C(=O)Nc1ccc(Cl)c(-c2nc3cc(Cl)ccc3o2)c1 | -36.4
24 | O=C(Nc1ccncc1)c1ccc(C(=O)Nc2ccncc2)cc1 | 16.1
25 | NC(=O)c1ccc(NC(=O)c2ccc(Cl)c(Cl)c2)cc1 | -0.4
26 | Cc1cc(=O)c2c(C)nc(-c3ccccc3)nc2[nH]1 | 31.5
27 | O=C(Nc1ccc(N2CCOCC2)cc1)c1ccco1 | 0.5
28 | CC(C)COc1ccc2[nH]c3c(c2c1)CCC/C3=N\N | 15.9
29 | CN1CCN(NC(=S)Nc2ccc([N+](=O)[O-])cc2)CC1 | -6.5
30 | O=[N+]([O-])c1ccc(Cl)c(-n2ncnc2-c2cccnc2)c1 | -1.9
31 | CCCC1=NN2C(=N)/C(=C/c3ccc(OCc4ccccc4Cl)cc3)C(=O)N=C2S1 | -12.7
32 | COc1cc(C(=O)NC(NC(=S)Nc2cccc3ccccc23)C(Cl)(Cl)Cl)cc(OC)c1OC (centres undefined) | -6.4
33 | FC(F)(F)c1cc(-c2ccccc2)n[nH]1 | 17.1
34 | O=C(c1ccc(Cl)cc1)N1CCN(c2ccc(Cl)cc2[N+](=O)[O-])CC1 | -0.7
35 | COc1cc2c(cc1NC(=O)Cc1ccc(Cl)cc1)oc1ccccc12 | -4.6
36 | O=[N+]([O-])c1ccccc1C=Nc1cc2c(cc1Br)OCCO2 | -4.8
37 | O=C(Cc1ccc(Br)cc1)Nc1nc2ccccc2s1 | 7.1
38 | CC1=C(C(=O)Nc2ccc(C)cc2)C(c2ccccc2F)NC(=S)N1 (centres undefined) | -9.3
39 | COc1ccc(N(CC(=O)Nc2ccc(Cl)cc2)S(=O)(=O)c2ccc(C)cc2)cc1 | 6.6
40 | CC1=NN(C(=S)c2ccccc2)C(C)(O)C1 (centres undefined) | 16.2
41 | CCOc1cc(C2C3=C(CC(C)(C)CC3=O)NC3=C2C(=O)c2ccccc23)ccc1O (centres undefined) | -0.8
42 | N#CCSc1nc(-c2ccccc2)c(-c2ccccc2)o1 | 5.9
43 | CCOc1ccc(NC(=O)C(C)C)c([N+](=O)[O-])c1 | -1.9
44 | CCCSc1nnc(NC(=O)/C=C/c2ccccc2)s1 | 9.8

Row | SMILES | displacement [%]
45 | Cc1cc(=O)[nH]c(N/N=C/c2cc([N+](=O)[O-])ccc2O)n1 | -18
46 | CCSc1nnc(-c2ccc(Cl)cc2)c2ccccc12 | -11.5
47 | CC1C(c2ccccc2)NC(c2ccccc2)C(C)C1(O)C#Cc1ccccc1 (centres undefined) | -10
48 | O=C1NC(=O)N(c2ccc(F)cc2)C(=O)/C1=C/c1cc(Cl)c(O)c(Cl)c1 | -15.6
49 | COC(=O)C1=C(C)N=C2SCC(=O)N2C1c1ccccc1 (centres undefined) | -102
50 | CCOC(=O)c1c(N2CCNCC2)c2ccccc2[nH]c1=O | -7.3
51 | O=C(O)CCNC(=O)/C(=C\c1ccccc1)NC(=O)c1ccccc1 | 0.2
52 | CCOC(=O)C1=C(C)N=c2s/c(=C\c3cn(C)c4ccccc34)c(=O)n2C1c1ccc(OC)c(OC)c1 (centres undefined) | 29.1
53 | Cc1ccc(C(C)NC(=O)Cc2ccccc2)cc1 (centres undefined) | 13.2
54 | CCOC(=O)c1c(N2C(=O)CC(Sc3nc4ccccc4s3)C2=O)sc2c1CCCC2 (centres undefined) | -8.2
55 | COC(=O)c1ccc(C(=O)Nc2cc(Cl)ccc2Cl)cc1NC(=O)c1cccs1 | -8.4
56 | CCOC(=O)Nc1ccc(C(C)CC)cc1 (centres undefined) | 2.4
57 | O=C(NCCOc1ccc(Cl)cc1)C(O)(c1ccc(Cl)cc1)c1ccc(Cl)cc1 | -7.2
58 | Cc1ccccc1OCCOc1ccccc1/C=N/n1cnnc1 | -10.1
59 | O=C(O)CNC(=O)c1sc2ccccc2c1Cl | 2.1
60 | Cc1onc(-c2c(Cl)cccc2Cl)c1C(=O)N1C(C)CCCC1C (centres undefined) | 11.4
61 | O=C(N/C(=C/c1cccc([N+](=O)[O-])c1)C(=O)N1CCCCC1)c1ccco1 | 8.1
62 | CC(=O)Nc1ccc(S(=O)(=O)N2c3ccc(C)cc3C(C)=CC2(C)C)cc1 | 3.7
63 | COc1ccc(S(=O)(=O)Nc2nccs2)cc1 | -12.9
64 | COc1cc2c(cc1OC)C(=O)NC1(CCCC1)C2 | -1
65 | CCOc1ccc(S(=O)(=O)N(CC(=O)Nc2ccccc2Br)c2ccc(C)cc2)cc1 | -0.4
66 | O=C(NC1CCCCC1)N1CCN(C(c2ccccc2)c2ccccc2)CC1 | 0.1

Row | SMILES | displacement [%]
67 | CCOC(=O)c1[nH]c2c(C)cccc2c1CCN1C(=O)c2ccccc2C1=O | -12.1
68 | CCCC(=O)Nc1cccc(NC(=O)c2ccc(OC)c(Br)c2)c1 | -19
69 | CC(=O)c1cccc(NC(=O)c2ccc(OCc3ccccc3)cc2)c1 | -13.3
70 | CC(C)(O)C#Cc1ccc(C(=O)NCc2ccco2)cc1 | -0.4
71 | O=C1/C(=C\c2ccc3c(c2)OCO3)SC(=S)N1C1CCS(=O)(=O)C1 (centres undefined) | 106
72 | CCC1S/C(=N/N=C(/C)c2ccc(Br)cc2)NC1=O (centres undefined) | -22.5
73 | COc1ccccc1CNC(=O)CC(C)=O | -2.7
74 | O=C(c1ccc([N+](=O)[O-])cc1)n1c2c(c3ccccc31)CCCC2 | 7.5
75 | O=C(CSc1nc2sc3c(c2c(=O)[nH]1)CCCC3)NCCO | 3.9
76 | COc1ccccc1OCCOc1ccc(/C=N/n2cnnc2)cc1 | 3.9
77 | Cc1cccc(C)c1NC(=O)/C=C/c1cccc([N+](=O)[O-])c1 | -2.9
78 | COc1c(Cl)cc(Cl)cc1/C=c1\sc2nc3c(C)c(C)ccc3n2c1=O | -6.7
79 | Cc1ccc(S(=O)(=O)NCCC(=O)Nc2ccc([N+](=O)[O-])cc2)cc1 | 9.1
80 | Clc1ccc(/C=N/Nc2nc(N3CCOCC3)nc(N3CCOCC3)n2)cc1Cl | 5.1
81 | O=C(/C(=C\c1ccc(Cl)cc1)c1nc2ccccc2s1)c1ccccc1 | -43
82 | CC(C)(C)c1ccc(C(=O)NCCOc2ccccc2F)cc1 | -13.8
83 | Cc1cc(Br)ccc1NC(=O)c1cccc([N+](=O)[O-])c1C | -0.1
84 | COc1ccc(C2C(C(=O)c3cccs3)=C(O)C(=O)N2c2nncs2)cc1OC (centres undefined) | 84.6
85 | FC(F)(F)c1ccc(N/N=C/c2ccc3c(c2)OCO3)nc1 | 9.9
86 | Cc1cc(NS(=O)(=O)c2ccc(Nc3nc(-c4sc(N)nc4C)cs3)cc2)no1 | -1.9
87 | COc1ccc(-c2nc3cc(NC(=O)COc4ccc([N+](=O)[O-])cc4)ccc3o2)cc1Br | -2.2
88 | N#Cc1c(NC(=O)c2cnccn2)sc2c1CCCCCC2 | 6.1

Row | SMILES | displacement [%]
89 | COc1cc(/C=C(\C#N)C(=O)c2ccccc2)ccc1O | -23.9
90 | COc1cc(C2NC(=S)NC(C)=C2C(=O)Nc2ccc(Br)cc2)ccc1O (centres undefined) | 2.6
91 | O=C1NC(=S)S/C1=C/c1ccccc1OS(=O)(=O)c1ccccc1[N+](=O)[O-] | 11.9
92 | CC1=NN(c2ccccc2)C(=O)/C1=C/c1ccc(OS(=O)(=O)c2ccccc2[N+](=O)[O-])cc1 | -8.1
93 | Cc1ccc(/C=C(\C#N)c2nc3ccccc3n2C)o1 | -12.7
94 | CC(C)CC(=O)NC(NC(=O)CC(C)C)c1ccc(Br)cc1 | 4.4
95 | O=C1C(=O)N(CCCn2ccnc2)C(c2ccc(Cl)cc2)/C1=C(\O)c1ccc(Cl)cc1 (centres undefined) | -5.8
96 | O=[N+]([O-])c1cc(Br)c(O)c(/C=N/Nc2nc3ccccc3[nH]2)c1 | -1.3
97 | CCC(Sc1nc2ccccc2s1)C(=O)Nc1ccc([N+](=O)[O-])cc1 (centres undefined) | -12
98 | O=C(CSc1nnc(-c2ccccc2)n1-c1ccccc1)N/N=C/C=C/c1ccccc1 | 0.7
99 | Cc1ccc2c(c1)c1c3n2CCN(C(=O)c2ccc([N+](=O)[O-])cc2)C3CCC1 (centres undefined) | 0.7
100 | COc1ccccc1C(=O)N1CCN(Cc2ccc(Cl)cc2)CC1 | -17.9
101 | CCOC(=O)c1c(NC(=O)Oc2ccccc2)sc2c1CCC2 | 12.9
102 | O=C(/C=C/c1ccc(Cl)cc1)Nc1ccc(-c2nc3ccccc3o2)c(O)c1 | -0.3
103 | CCC(=O)Nc1ccc(NC(=O)c2ccccc2[N+](=O)[O-])cc1 | 5.2
104 | COc1ccc(C(=O)NCC2(c3ccc(OC)c(OC)c3)CCCCC2)c(OC)c1 | -14.3
105 | CC(=O)Nc1ccc(C2NN=C(c3ccc(C)cc3)S2)cc1 (centres undefined) | 49.6
106 | CCn1c(C)nc2cc(S(=O)(=O)N3CCCC3)ccc21 | 16.9
107 | O=C(NC(=S)Nc1ccc(-c2nc3ccccc3o2)cc1)c1ccco1 | 11.6
108 | COc1cc(C=Nc2cccc(Br)c2)ccc1O | 7.9
109 | Cc1ccc2[nH]c3nc(N/N=C/c4cccc(Cl)c4)nnc3c2c1 | 4.8
